Laboratory results reported in patent publication US20240270859A1 (HK INNO N, published 2024).
Read-outs that look alike come from different tables or passages of the source.

T1: human OX40L protein (OX40L-his), Acro Biosystems Cat #OXL-H52Q8 (human, UniProt P23510 51-183)
T1 sequence: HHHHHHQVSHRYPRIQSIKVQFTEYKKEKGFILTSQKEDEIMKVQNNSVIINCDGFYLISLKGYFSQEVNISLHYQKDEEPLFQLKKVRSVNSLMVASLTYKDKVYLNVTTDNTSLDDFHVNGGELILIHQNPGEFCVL

B1: bispecific antibody 02C09-TNFαi LC (bispecific antibody)
heavy: QMQLVQSGGGLVKPGGSLRVSCAASGFTFNYAWMSWVRQAPGKGLEWVGRIKGEPDGGTTEYADSVKGRFTISRDNSKNTLYLQMNSLRAEDTAVYYCVSRRGLDVWGQGTTVTVSSASTKGPSVFPLAPCSRSTSESTAALGCLVKDYFPEPVTVSWNSGALTSGVHTFPAVLQSSGLYSLSSVVTVPSSSLGTKTYTCNVDHKPSNTKVDKRV[human IgG4 Fc with S228P (EU numbers) not spelt out]
light: not shown
B2: bispecific antibody I3F07-TNFαi LC (bispecific antibody)
heavy: QIQLAQSGAELVKPGASVKLSCKASGFTFPDYWMHWVKQRPGQGLEWIGEIDPPNGRTNYNEKFKSKATLTVDSSSNTAYMQLSRLTSEDSAVYYCARGIYYVDYWGQGTTLTVSSASTKGPSVFPLAPCSRSTSESTAALGCLVKDYFPEPVTVSWNSGALTSGVHTFPAVLQSSGLYSLSSVVTVPSSSLGTKTYTCNVDHKPSNTKVDKRV[human IgG4 Fc with S228P (EU numbers) not spelt out]
light: not shown

What was measured:
Test in all cases: cell-based or functional assay
[1] = target: T2, human TNFα (TNF-H5228 of Acro Biosystems) (human, UniProt P01375 fragment)
[2] = target: T1, human OX40L protein (OX40L-his), Acro …
[3] = target: T2, human TNFα (TNF-H5228 of Acro …); remark: listed apart in the source

T2 sequence (P01375 77-233 limits assumed): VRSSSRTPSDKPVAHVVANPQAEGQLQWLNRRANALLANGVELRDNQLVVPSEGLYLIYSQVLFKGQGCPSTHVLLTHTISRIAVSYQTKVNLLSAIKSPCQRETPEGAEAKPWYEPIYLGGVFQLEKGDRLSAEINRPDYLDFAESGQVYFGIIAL

Binder	IC50 (nM), TNFα blockade assay (luminescence of NFκB-RE HEK293 cells) [1] [nM]	IC50 (nM), OX40L blockade assay (luminescence of NFκB-luc2/OX40 Jurkat cells) [2] [nM]	IC50 (nM), TNFα blockade assay (luminescence of NFκB-RE HEK293 cells) [3] [nM]
B1	0.058		
B2		0.94	0.077
